# Laboratory results as given in publication PMC4336329 (PLoS ONE, 2015).
# Out of some 310,000 compounds screened, about 2,200 (0.71%) showed an effect of 50% or more. Effects have a minus sign here. The list shows a part of the results.
# Molecular target: human ether-à-go-go-related gene (hERG) potassium channel (human, UniProt Q12809)
# Assay: primary screen, population patch clamp on CHO cells stably expressing hERG
# human ether-à-go-go-related gene (hERG) potassium channel, sequence (Q12809 whole entry, looked up): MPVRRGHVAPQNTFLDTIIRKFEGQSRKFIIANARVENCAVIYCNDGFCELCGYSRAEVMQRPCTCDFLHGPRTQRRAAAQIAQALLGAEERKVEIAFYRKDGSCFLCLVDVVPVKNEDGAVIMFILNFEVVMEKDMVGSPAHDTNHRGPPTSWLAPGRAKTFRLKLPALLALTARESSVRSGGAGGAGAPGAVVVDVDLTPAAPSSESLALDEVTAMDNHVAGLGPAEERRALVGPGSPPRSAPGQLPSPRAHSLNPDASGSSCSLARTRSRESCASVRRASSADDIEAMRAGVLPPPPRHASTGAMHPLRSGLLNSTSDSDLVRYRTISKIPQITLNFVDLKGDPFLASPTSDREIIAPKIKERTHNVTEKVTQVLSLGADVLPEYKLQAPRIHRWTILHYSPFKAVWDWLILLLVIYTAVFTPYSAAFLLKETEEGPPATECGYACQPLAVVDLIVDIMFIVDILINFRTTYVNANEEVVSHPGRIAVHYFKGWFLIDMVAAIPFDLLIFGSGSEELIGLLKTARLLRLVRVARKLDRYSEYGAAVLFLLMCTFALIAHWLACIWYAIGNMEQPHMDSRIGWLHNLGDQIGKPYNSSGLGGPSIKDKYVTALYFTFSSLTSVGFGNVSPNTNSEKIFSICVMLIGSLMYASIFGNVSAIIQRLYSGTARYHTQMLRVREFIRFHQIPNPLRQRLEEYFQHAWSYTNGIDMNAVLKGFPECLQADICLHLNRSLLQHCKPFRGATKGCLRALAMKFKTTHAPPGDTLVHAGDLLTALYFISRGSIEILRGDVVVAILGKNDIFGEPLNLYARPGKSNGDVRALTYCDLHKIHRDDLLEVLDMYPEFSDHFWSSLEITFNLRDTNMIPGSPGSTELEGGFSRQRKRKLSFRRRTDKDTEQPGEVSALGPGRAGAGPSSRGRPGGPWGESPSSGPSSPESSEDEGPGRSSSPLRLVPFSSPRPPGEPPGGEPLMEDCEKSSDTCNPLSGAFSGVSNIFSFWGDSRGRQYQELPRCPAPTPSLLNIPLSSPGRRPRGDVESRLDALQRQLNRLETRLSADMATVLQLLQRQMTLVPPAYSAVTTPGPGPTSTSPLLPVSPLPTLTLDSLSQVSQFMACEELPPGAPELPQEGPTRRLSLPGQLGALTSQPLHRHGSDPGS
row,SMILES,"hERG current change (%, negative = inhibition) at 1uM"
1,Cc1ccc(CN2CCCCC2C(=O)Nc2ccc(Oc3cccnc3)cc2)o1 (stereo not drawn),-0.0911%
2,O=C(CNC(=O)c1ccccc1)N/N=C/C=C/c1ccccc1,15.9%
3,Cc1ccc(NC(=O)c2cc(N(C)C)ccc2[P+](=O)O)cc1,4.05%
4,CCOc1ccc(S(=O)(=O)N(C)CC(=O)NC2CC2)cc1,16.1%
5,C=CCn1c(=O)/c(=C\c2ccsc2)s/c1=C(/C#N)C(=O)NCCN1CCOCC1,7.46%
6,Br.CCOC(=O)/C(=N\Nc1ccccc1[N+](=O)[O-])c1csc(N)n1,6.8%
7,NC(=O)/C(=C/c1ccc2c(c1)OCO2)NC(=O)c1ccco1,15.9%
8,O=C1CCCC2=C1C(c1ccccc1)n1c(s/c(=C/c3cccc(F)c3)c1=O)=N2 (stereo not drawn),19.2%
9,CN1CCN(c2ccc(C(CC(N)=O)NC(=O)Cc3cccc4ccccc34)cc2[N+](=O)[O-])CC1 (stereo not drawn),12.7%
10,CC(C)(C)SCCNC(=O)/C=C/c1ccc(F)cc1,4.25%
11,CN1CCN(NC(=O)c2cc(-c3ccc(Br)s3)nc3ccccc23)CC1,7.35%
12,COC(=O)C1CCCCN1C(=O)c1ccc(OC2CCN(C(C)=O)CC2)c(OC)c1 (stereo not drawn),13.4%
13,O=C(Nc1ccc(F)c(Cl)c1)N1CCCC1,11.7%
14,CCOC(=O)Cc1csc(SC(C)C(=O)NC2CCCCC2C)n1 (stereo not drawn),2.92%
15,CNC(=O)c1nc(C)n(-c2cc(Cl)ccc2Cl)n1,16.4%
16,COc1cc2c(cc1O)CC1c3c(cc(O)c(OC)c3-2)CCN1C (stereo not drawn),-49.7%
17,[O-][n+]1onc2c3cc(-c4ccccc4)nnc3ccc21,1.69%
18,Cc1ccccc1C(=O)N1CCC(C(=O)Nc2ccccc2Cl)CC1,15.2%
19,Cc1ccnc2nc(C(=O)Nc3ccc4c(c3)OCO4)nn12,4.76%
20,O=C(COC(=O)CC1CCCC1)Nc1ccccc1[N+](=O)[O-],11.3%
21,CC1CN/C(=C\C(=O)c2ccc(Cl)cc2)C(=O)N1 (stereo not drawn),-1.19%
22,C/C(=N/NS(=O)(=O)c1ccc(C)cc1C)c1ccc2c(c1)OCO2,7.65%
23,COc1cc(C(C[N+](=O)[O-])c2c(C)cc3ccccn23)ccc1O (stereo not drawn),5.13%

row,SMILES,"hERG current change (%, negative = inhibition) at 1uM"
1,CN(C)P(=O)(CCl)Nc1ccccc1 (stereo not drawn),11.8%
2,COc1cc(NC(=O)COC(=O)C2CC2)c(C)cc1[N+](=O)[O-],12.3%
3,COC(=O)CSc1nnc(-c2cccnc2)n1-c1cccc(OC)c1,11.6%
4,CCOC(=O)C1CCN(C(=O)N2CCOCC2)CC1,0.708%
5,O=C(CN1C(=O)NC2(CCCC2)C1=O)Oc1ccc2ccc(=O)oc2c1,8.19%
6,CCc1ccc(S(=O)(=O)N2CCN(c3ccccc3OC)CC2)cc1,12.2%
7,COC(=O)C1=C(C(=O)OC)[C@@H]2N(Cc3ccccc3)c3ccccc3[C@@]23C[C@@H](CO)N(C(=O)NC2CCCC2)C3=N1,2.25%
8,O=C(NCc1ccccc1)C1CCN(S(=O)(=O)N2CCCCCC2)CC1,4.68%
9,Cc1ccc(N2C(=O)C3C4C=CC(C4)C3C2=O)cc1 (stereo not drawn),6.86%
10,O=C(Cn1cnc2ccccc2c1=O)OCCCCN1C(=O)c2ccccc2C1=O,10.1%
11,Cc1nn(C)cc1S(=O)(=O)N1CCCC(C(=O)O)C1 (stereo not drawn),18.4%
12,N#CCCc1cccc(CCC#N)c1,8.54%
13,Cc1ccc2nc(N(CCCN(C)C)C(=O)c3ccc(S(=O)(=O)N4CCc5ccccc5C4)cc3)sc2c1.Cl,5.48%
14,CCOc1cc(/C=C2\C(=O)N(CCC#N)N=C2C)ccc1OCC(N)=O,22%
15,Cc1ccccc1NC(=O)c1cc(C(=O)c2cc(Cl)ccc2O)cn(-c2ccccc2C)c1=O,2.35%
16,O=c1cnnc(N/N=C/C2CC=CCC2)[nH]1 (stereo not drawn),-3.88%
17,c1ccc(-c2nn3cnnc3c3ccccc23)cc1,6.79%
18,CCOc1ccccc1NC(=O)CSc1ncnc2c1oc1ccccc12,0.609%
19,Cc1ccc(C(=O)c2ccccc2C(=O)OCC(=O)NCCc2ccc(Cl)cc2Cl)cc1,6.78%
20,CC(=NCc1ccco1)c1c(O)n(Cc2ccccc2)c(=O)[nH]c1=O,4.77%
21,CCOC(=O)C1CCCN(Cc2nc(N)nc(Nc3ccc(OC)cc3)n2)C1 (stereo not drawn),-67.8%
22,Cc1ccc(/C=C(\C#N)C(=O)Nc2cccc3ncccc23)o1.Cl,11.8%
23,Cc1ccc(SCc2cn3cc(Cl)ccc3n2)cc1,2.46%

row,SMILES,"hERG current change (%, negative = inhibition) at 1uM"
1,O=C1CCCc2c1nc(-c1ccc([N+](=O)[O-])cc1)n2O,10.6%
2,CCOC(=O)Cc1csc(Nc2ccc(Cl)cc2)n1,10.2%
3,COc1cc(NC(=O)Cn2nc(-c3ccc(F)cc3)ccc2=O)ccc1-n1cnnn1,12%
4,CC(C)C(=O)N1CCN(c2ccc(NC(=O)c3ccc(Br)o3)cc2)CC1,14.2%
5,Cc1cccc(NC(=O)CSc2nnc(C)c(=O)n2N)c1,13.1%
6,FC(F)(F)c1ccc(Cl)c(NC(=S)NC2CC2)c1,1.26%
7,Nc1nc(NCc2cccs2)nn1-c1ccccc1,4.91%
8,O=C(COc1ccccc1[N+](=O)[O-])NC1CC1,1.78%
9,COc1ccc(NC(=O)NNS(=O)(=O)c2ccc(OC)c(OC)c2)c(OC)c1,13.5%
10,O=[N+]([O-])c1ccccc1NCc1c(O)ccc2ccccc12,13.5%
11,O=C(NCc1ccco1)c1cnn2c1NC(c1ccc(Br)cc1)CC2C(F)(F)F (stereo not drawn),7.95%
12,CCC(=O)Nc1ccc2c(c1)ncn2-c1ccc(OC)cc1,11.4%
13,CCC(CC)NCCOC(=O)c1ccc([N+](=O)[O-])cc1,-3.41%
14,CC(=O)OC(C(=O)NCc1ccco1)c1ccncc1 (stereo not drawn),5.93%
15,CC(C)c1ccc(NC(=O)CCNS(=O)(=O)c2cccc3nonc23)cc1,4.01%
16,CCn1c(N)[n+](CC(=O)Nc2ccc(SC(F)F)cc2)c2ccccc21.[Cl-],-63.1%
17,CCc1nnc(NC(=O)[C@@H](NC(=O)c2cccc(C)c2)C(C)C)s1,10.5%
18,N#CC1(NC(=O)Cn2cc(C(F)(F)F)ccc2=O)CCCC1,-1.17%
19,COc1cc(C(=S)N2CCOCC2)cc(OC)c1OS(=O)(=O)c1ccc(C)cc1,10.9%
20,Nc1ccc2nc3c(c(Cl)c2c1)CCCC3,0.0347%
21,O=C(CSCCO)Nc1ccc([N+](=O)[O-])cc1,3.82%
22,CCn1nnnc1-c1ccc(OC)c(S(=O)(=O)NCc2ccccc2)c1,5.34%
23,CSCCC1NC(=O)N(CC(=O)Nc2ccc(-c3ccccc3)cc2)C1=O (stereo not drawn),2.01%

row,SMILES,"hERG current change (%, negative = inhibition) at 1uM"
1,COc1ccc(/C=C/c2ccncc2)cc1OC,5.16%
2,CCOc1cccc(-c2c(C(=O)N/N=C/c3ccc(C)s3)nnn2-c2nonc2N)c1,16.6%
3,Cc1onc(C(=O)Nc2sc3c(c2C#N)CCCC3)c1[N+](=O)[O-],10.8%
4,COc1ccc(-c2cc(C(F)(F)F)n3nc(C(=O)NCc4ccco4)c(Cl)c3n2)cc1,13.1%
5,Cn1c(=O)c2ncn(CC(=O)O)c2n(C)c1=O,15.4%
6,CCCCn1c(N)c(N(CC(C)C)C(=O)c2cccc(S(=O)(=O)N3CC(C)OC(C)C3)c2)c(=O)[nH]c1=O (stereo not drawn),18%
7,Cc1ccc(CN2CCC(n3nccc3NC(=O)CCOc3ccccc3)CC2)o1,3.11%
8,CCn1cc(C(=O)NCCN(CC(C)C)CC(C)C)c(=O)c2cc(S(=O)(=O)N3CCOCC3)ccc21,2.38%
9,CCOc1c(/C=C(\C#N)C(N)=O)c2ccccc2n1CC,7.72%
10,COCc1cc(C)nc2sc(C(=O)Nc3ccc(OC)cc3)c(N)c12,11.7%
11,O=C1Nc2ccc(Br)cc2C1=Nc1cccnc1,1.49%
12,COc1ccc(CNCc2ccccc2C(F)(F)F)cc1.O=C(O)C(=O)O,11.1%
13,CCC(C)NCCOCCOc1ccc(Cl)cc1Br.O=C(O)C(=O)O (stereo not drawn),3.42%
14,CCCCCCCC(=O)N/N=C(\C)c1cccnc1,0.0128%
15,NS(=O)(=O)c1ccc(NC(=O)COC(=O)COc2ccc(Cl)cc2)cc1,9.38%
16,COc1ccccc1N1CCN(C(c2cccs2)C(C)NC(=O)C(=O)N2CCCCC2)CC1 (stereo not drawn),1.31%
17,COc1ccc(C(=O)/C=C/c2ccsc2)cc1CSCC(=O)O,13.4%
18,COc1ccc(CN2CCNC(=O)C2CC(=O)N(C)CCCN2CCOCC2)cc1C (stereo not drawn),23.3%
19,CCC(C)NS(=O)(=O)c1cccs1 (stereo not drawn),11.4%
20,COc1ccc(S(=O)(=O)N2CCC(NC(=O)c3cccnc3)CC2)cc1,-18.5%
21,Cc1ccc(/C=N/NC(=O)Cn2cnc3ccccc32)cc1,20%
